Reference: the supplement of paper PMC4166925
± gives the standard deviation of the averaged measurements. In all, about 33,000 sequences were measured (“E-score (dimensionless, -0.5 to 0.5)”: median about -0.046, highest 2% from about 0.36 on). Some of the results follow.

Test system: T1, SpTbr T-box DNA-binding domain (GST fusion)
T1 sequence: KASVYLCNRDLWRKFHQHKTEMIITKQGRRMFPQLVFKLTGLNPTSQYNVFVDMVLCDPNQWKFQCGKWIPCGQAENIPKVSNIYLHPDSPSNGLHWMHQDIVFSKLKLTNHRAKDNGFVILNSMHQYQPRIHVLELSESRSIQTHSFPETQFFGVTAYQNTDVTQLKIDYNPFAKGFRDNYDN
Assay: PBM E-score of 8-mer (E-score (dimensionless, -0.5 to 0.5)); Tbr is Tbrain of the sea star Patiria miniata (Pm) or the sea urchin Strongylocentrotus purpuratus (Sp); higher = stronger binding preference; most listed sequences are background and not binding sites
Settings: the construct has about 5 more residues each side
How it was run: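 Universal Agilent oligonucleotide arrays, made double-stranded by primer extension, were incubated with 200 nM GST-fused Tbr T-box DNA-binding domain in PBS (pH 7.5). The protein was expressed in BL21 E. coli at 20 °C and purified by glutathione affinity chromatography. After scanning and quantification, the Universal PBM Analysis Suite assigned an enrichment E-score to each ungapped 8-mer, averaged over duplicate arrays.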

Sequence | PBM E-score of 8-mer
AAATTAAT | -0.133 ± 0.0065
TGACGCCA | 0.299 ± 0.004
GAGCCGAC | 0.00354 ± 0.049
CGCCTATA | -0.0217 ± 0.054
CCTACACC | 0.265 ± 0.013
GCCTTAGA | -0.18 ± 0.014
CATATGGA | -0.197 ± 0.021
ATTGCCCA | -0.057 ± 0.0021
CTGAGAAG | -0.0925 ± 0.15
GACGGAGA | -0.144 ± 0.017
ACTAACCC | 0.0812 ± 0.003
AGTCATCG | -0.119 ± 0.063
TCGTGTAA | 0.144 ± 0.031
AGATTCCT | -0.101 ± 0.021
GCCTATAC | -0.317 ± 0.023
CAAGTAAG | -0.188 ± 0.0073
CAGCGAGG | 0.076 ± 0.011
AAACGATT | 0.00449 ± 0.012
GCATCTGA | -0.167 ± 0.038
CCATTTGC | -0.113 ± 0.05
ACGAACCA | -0.00981 ± 0.051
GGTCACGA | 0.27 ± 0.026
CGGCAGAA | -0.071 ± 0.034
TGGAACCA | -0.168 ± 0.059
CAAGGTGA | 0.392 ± 0.0089

Sequence | PBM E-score of 8-mer
ATAACCGA | -0.206 ± 0.066
GCAGTGCC | -0.102 ± 0.027
ATATGTCA | -0.0264 ± 0.024
TCACAAGA | 0.175 ± 0.026
ATGCGTAC | -0.257 ± 0.069
GTTTGCGA | 0.0295 ± 0.0092
CGCCGAAC | 0.074 ± 0.064
CGCAGCCA | 0.0637 ± 0.032
GAGTGAGA | 0.346 ± 0.023
ATAGCCAT | -0.118 ± 0.018
AGTTGGGA | -0.104 ± 0.098
CTACCAGA | -0.117 ± 0.026
ACGACACA | 0.12 ± 0.091
ATAGCTCG | -0.0954 ± 0.0088
CTGATGAA | 0.0658 ± 0.013
AACCTGTC | 0.248 ± 0.011
ATTCGACC | -0.158 ± 0.036
CGCGTTCC | -0.0195 ± 0.011
TGTAATAA | 0.0949 ± 0.1
AATCATCA | 0.238 ± 0.015
CATGGAAA | -0.142 ± 0.06
ACAGCAGG | -0.0406 ± 0.07
GAGTGGGA | 0.12 ± 0.015
CCCATTAA | -0.0049 ± 0.0021
CCACGCGG | 0.0195 ± 0.053

Sequence | PBM E-score of 8-mer
GAAGCATA | -0.234 ± 0.011
GCTATTTA | -0.00679 ± 0.015
ATGACGGA | -0.139 ± 0.0034
ACGCACTG | -0.0655 ± 0.037
AAAAGACA | -0.0444 ± 0.056
CTGTTTAC | 0.161 ± 0.042
ACTCTGCC | 0.0713 ± 0.0095
ACCGAGAA | 0.0904 ± 0.0019
CTCCTAAC | -0.0551 ± 0.024
AATTCATA | -0.101 ± 0.041
CCAGTTAA | -0.0568 ± 0.0054
GTTATCCA | 0.0147 ± 0.025
CCATAGAC | -0.218 ± 0.062
GACCGTCC | -0.182 ± 0.071
AACACGTA | 0.317 ± 0.018
AACGTAGG | -0.0674 ± 0.1
CCAAACAG | -0.0525 ± 0.0066
GAGTAGAC | -0.0936 ± 0.018
CAAAGCTC | -0.309 ± 0.054
GAGCGCTA | 0.205 ± 0.021
GCCAGGAA | -0.0317 ± 0.011
AGTGACAT | 0.277 ± 0.056
GCTGACTA | -0.0473 ± 0.02
GACGCAAA | -0.0592 ± 0.071
TAGCTTAA | -0.103 ± 0.03

Sequence | PBM E-score of 8-mer
ACTATGCA | -0.0115 ± 0.083
TAATATAA | -0.227 ± 0.032
GAAGCGCC | 0.0968 ± 0.042
ATGCGGTC | -0.162 ± 0.054
AATGAGTG | -0.0178 ± 0.024
CTGATCGC | 0.11 ± 0.096
AAGAATCC | -0.0435 ± 0.056
CCATGCGA | 0.142 ± 0.051
ATCACTAA | 0.0706 ± 0.027
CCCGCCCC | -0.0167 ± 0.1
AAGGATGC | -0.0902 ± 0.06
CCTGCTAG | 0.0516 ± 0.05
ACATCTCG | 0.0203 ± 0.007
AGGCATTC | -0.133 ± 0.0052
GAGTACCA | 0.0178 ± 0.00028
AAACACCT | 0.442 ± 0.015
TATCGTGA | 0.192 ± 0.0078
AGGTGTAC | 0.294 ± 0.0088
AGTTCCAT | 0.00979 ± 0.0044
AAGATGTG | 0.2 ± 0.047
GGACTACC | -0.277 ± 0.057
ACGCCCAC | 0.118 ± 0.12
GGTTGTGA | 0.293 ± 0.029
GGCGTCTA | 0.0469 ± 0.089
TTAGACAA | -0.247 ± 0.036

Sequence | PBM E-score of 8-mer
GCGCTGAA | 0.0114 ± 0.0097
AAGAAAAA | -0.161 ± 0.065
ATGACCTG | 0.0493 ± 0.034
ACGCACCG | 0.0314 ± 0.086
CGTTGCGA | 0.288 ± 0.011
CTACTGAG | -0.076 ± 0.018
TCCAAAGA | -0.0462 ± 0.036
CCTCAATA | -0.22 ± 0.037
ATTACTGA | -0.0466 ± 0.057
ACCTTACT | 0.0714 ± 0.031
TAAGGCGA | 0.137 ± 0.025
GATGGATA | -0.14 ± 0.084
AATGCGAA | 0.0358 ± 0.024
GTACGTAA | -0.2 ± 0.087
AACAGAGT | -0.0053 ± 0.1
CCCAAGAA | -0.101 ± 0.035
ATAACTCG | -0.0977 ± 0.0033
GTTATAAC | 0.117 ± 0.066
GCCATAAA | -0.0259 ± 0.034
AATCCAAT | 0.0559 ± 0.048
GGTAAACC | 0.116 ± 0.048
GTCACGCA | 0.279 ± 0.017
ACCACCGG | -0.108 ± 0.007
ACTCACTC | -0.0615 ± 0.031
CAGCAAGC | -0.0921 ± 0.045

Sequence | PBM E-score of 8-mer
CACCACTC | 0.166 ± 0.049
AGCGGCAA | 0.0796 ± 0.039
GAGCCCCA | -0.124 ± 0.065
AATTGAAC | -0.0313 ± 0.0045
ACCCCTGG | -0.0965 ± 0.0066
CCATACAG | -0.253 ± 0.097
ACTATAGA | -0.245 ± 0.0039
AGCGCGCA | 0.112 ± 0.047
AATCCCTC | -0.111 ± 0.025
CGAGCTTC | 0.0382 ± 0.016
CCATACTC | 0.0687 ± 0.002
AAGTTGAA | -0.298 ± 0.067
CATTTGCA | 0.0389 ± 0.025
ATGTCTCG | -0.289 ± 0.017
AGAACCTA | -0.249 ± 0.053
AGTTCAAG | -0.283 ± 0.036
ACCATCTA | -0.177 ± 0.04
GCCTATGA | -0.139 ± 0.046
CACTGGGC | -0.137 ± 0.012
GCTAATCC | -0.0694 ± 0.041
CAAGATCG | 0.0267 ± 0.034
CTGTGGAA | 0.061 ± 0.12
CTGTAAGC | 0.0549 ± 0.007
GGTGCATA | 0.0222 ± 0.011
TTGAGAAA | 0.000105 ± 0.093

Sequence | PBM E-score of 8-mer
GCGGACCA | 0.0506 ± 0.0036
ATGTAATA | -0.0427 ± 0.038
CTTGAACA | -0.0736 ± 0.0022
CAAGAGCC | -0.0515 ± 0.0038
AAGCCGGA | -0.278 ± 0.011
AACGTCGC | 0.0261 ± 0.003
TATCTGCA | -0.0527 ± 0.061
ACCTCCCG | 0.0918 ± 0.056
AATCCGGT | -0.114 ± 0.0073
CAGGGGAC | -0.16214 ± 3.5e-05
CGATGGCG | 0.184 ± 0.045
TACAAGGA | -0.158 ± 0.065
GGCTCCTA | -0.1152 ± 0.0011
AAATTCTT | -0.118 ± 0.13
CTTCACCC | 0.123 ± 0.04
GAAACCAC | -0.0345 ± 0.067
ACGTGCAA | 0.141 ± 0.038
GTTACGAA | 0.00639 ± 0.00059
CAGCCCGC | -0.128 ± 0.043
GACTAGAC | -0.175 ± 0.011
CAAACACG | 0.187 ± 0.02
TGCGCTAA | 0.191 ± 0.035
